Assay results: publication PMC9663306
No constants are given. Whether binding was seen depends on the method and setting. Binding seen in cells or lysates may run through a third protein. Some results given as binding are weak or reduced against the parent protein; the word gives no strength. For some assays here: Where a sequence is shown, tags or fusion partners need not be part of it. Blank lines part the entries; values can stand above or below the substance they belong to.

Chains of the proteins cited; added tags and fusions are not shown. Residues count along the entry.
UniProt Q16552, residues 24-155: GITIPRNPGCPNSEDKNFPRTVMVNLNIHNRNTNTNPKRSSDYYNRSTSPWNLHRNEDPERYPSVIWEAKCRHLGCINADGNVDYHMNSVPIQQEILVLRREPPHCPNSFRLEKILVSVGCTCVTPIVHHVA
UniProt Q60943, residues 32-864: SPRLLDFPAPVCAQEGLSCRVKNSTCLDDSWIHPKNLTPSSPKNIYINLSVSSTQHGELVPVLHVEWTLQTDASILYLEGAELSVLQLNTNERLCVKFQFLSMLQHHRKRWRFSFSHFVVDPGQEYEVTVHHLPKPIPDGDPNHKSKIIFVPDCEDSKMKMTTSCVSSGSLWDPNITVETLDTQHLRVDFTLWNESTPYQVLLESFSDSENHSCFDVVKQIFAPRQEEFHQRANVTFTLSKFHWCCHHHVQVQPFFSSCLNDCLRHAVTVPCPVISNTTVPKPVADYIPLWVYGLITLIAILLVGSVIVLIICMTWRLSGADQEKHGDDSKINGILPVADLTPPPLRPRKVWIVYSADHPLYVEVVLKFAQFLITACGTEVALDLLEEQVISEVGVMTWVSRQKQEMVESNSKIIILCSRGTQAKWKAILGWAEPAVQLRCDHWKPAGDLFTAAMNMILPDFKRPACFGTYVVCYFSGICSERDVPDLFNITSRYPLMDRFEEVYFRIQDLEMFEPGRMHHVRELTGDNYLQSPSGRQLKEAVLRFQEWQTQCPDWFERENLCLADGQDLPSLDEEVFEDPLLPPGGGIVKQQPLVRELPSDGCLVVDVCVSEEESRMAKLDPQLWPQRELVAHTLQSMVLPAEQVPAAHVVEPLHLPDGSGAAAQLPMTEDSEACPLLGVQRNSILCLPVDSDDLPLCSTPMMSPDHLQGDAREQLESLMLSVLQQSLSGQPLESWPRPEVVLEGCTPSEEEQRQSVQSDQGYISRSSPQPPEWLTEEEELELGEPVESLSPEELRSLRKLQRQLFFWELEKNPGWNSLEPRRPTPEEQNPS
UniProt Q8CJ61: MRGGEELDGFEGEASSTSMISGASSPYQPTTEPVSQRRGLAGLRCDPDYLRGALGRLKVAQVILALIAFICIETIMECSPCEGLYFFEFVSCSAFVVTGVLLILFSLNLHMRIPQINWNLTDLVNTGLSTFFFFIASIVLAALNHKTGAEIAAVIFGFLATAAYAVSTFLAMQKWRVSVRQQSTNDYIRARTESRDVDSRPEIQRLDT
UniProt O43734: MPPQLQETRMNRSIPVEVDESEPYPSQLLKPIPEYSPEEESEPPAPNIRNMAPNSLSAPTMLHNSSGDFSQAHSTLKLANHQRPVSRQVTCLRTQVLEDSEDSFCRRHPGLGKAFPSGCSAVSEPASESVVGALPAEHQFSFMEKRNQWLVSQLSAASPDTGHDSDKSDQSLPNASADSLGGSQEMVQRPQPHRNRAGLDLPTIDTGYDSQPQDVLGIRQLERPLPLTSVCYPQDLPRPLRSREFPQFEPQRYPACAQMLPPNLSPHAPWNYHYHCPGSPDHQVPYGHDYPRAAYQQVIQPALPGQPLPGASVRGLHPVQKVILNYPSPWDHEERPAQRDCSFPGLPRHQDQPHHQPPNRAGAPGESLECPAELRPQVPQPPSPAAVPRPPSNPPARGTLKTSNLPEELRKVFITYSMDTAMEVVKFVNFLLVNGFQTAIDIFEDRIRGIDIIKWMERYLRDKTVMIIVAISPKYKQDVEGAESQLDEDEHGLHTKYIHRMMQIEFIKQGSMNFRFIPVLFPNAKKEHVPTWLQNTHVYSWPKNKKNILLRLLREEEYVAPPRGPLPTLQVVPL

Legend:
[1] = biological target: T1, SF-IL-17RC (murine IL-17RC with C-terminal 2xStrep-3xFlag tag), in ST2 cells (mouse) (UniProt Q8K4C2); experiment: co-IP; Flag IP from lysates of Cmtm4−/− ST2 cells transduced with Myc-tagged members of the CMTM family (CMTM1–8) together with SF-IL-17RC, immunoblot
T1 sequence (chain, N-glycosylated (100 kDa and 150 kDa forms)): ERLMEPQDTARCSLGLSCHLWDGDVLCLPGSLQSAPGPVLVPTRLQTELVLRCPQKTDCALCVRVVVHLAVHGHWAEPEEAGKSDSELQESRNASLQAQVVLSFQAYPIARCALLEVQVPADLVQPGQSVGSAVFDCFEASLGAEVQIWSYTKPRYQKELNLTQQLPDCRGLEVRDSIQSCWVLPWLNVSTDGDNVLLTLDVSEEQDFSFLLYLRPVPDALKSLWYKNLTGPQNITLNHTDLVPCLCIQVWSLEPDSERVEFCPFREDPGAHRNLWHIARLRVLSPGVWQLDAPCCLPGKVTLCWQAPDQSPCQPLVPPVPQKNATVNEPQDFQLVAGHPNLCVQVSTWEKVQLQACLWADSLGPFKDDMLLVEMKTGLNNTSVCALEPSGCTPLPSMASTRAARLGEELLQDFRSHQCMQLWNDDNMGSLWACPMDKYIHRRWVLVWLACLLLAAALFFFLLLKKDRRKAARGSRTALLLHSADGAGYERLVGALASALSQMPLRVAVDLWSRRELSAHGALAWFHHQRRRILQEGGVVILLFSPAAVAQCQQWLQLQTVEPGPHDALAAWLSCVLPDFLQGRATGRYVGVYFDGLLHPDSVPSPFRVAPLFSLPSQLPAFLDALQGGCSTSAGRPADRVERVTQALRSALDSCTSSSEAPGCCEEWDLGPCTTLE

[2] = biological target: T1, SF-IL-17RC (murine IL-17RC with C-terminal 2xStrep-3xFlag tag), in ST2 cells (mouse); experiment: co-IP; Flag IP from lysates of ST2 cells retrovirally transduced with SF-IL-17RC together with Myc-tagged CMTM4, CMTM6 or chimeric proteins, immunoblot
[3] = biological target: Strep-Flag-tagged human IL-17A (human) (UniProt Q16552); experiment: co-IP; HeLa cells (wild-type; CMTM4−/− beside them) stimulated with SF-IL-17A (500 ng/ml, 15 min) or left unstimulated with SF-IL-17A added post lysis; Flag IP, immunoblot; only the target purified
[4] = biological target: SF-IL-17RA in Drosophila S2 cells (mouse) (UniProt Q60943); experiment: co-IP; anti-FLAG M2 agarose IP from lysates of Drosophila S2 cells stably transfected with SF-IL-17RA or SF-IL-17RC together with Myc-CMTM4, expression induced with 500 µM CuSO4, immunoblot
[5] = biological target: T2, SF-IL-17RC in Drosophila S2 cells (mouse) (UniProt Q8K4C2); experiment: as above
T2 sequence: T1 sequence (chain, N-glycosylated (100 kDa and 150 kDa forms))

- binding [1]: binds
- binding [2]: binds
Substance: Myc-tagged CMTM4 in ST2 cells (from UniProt Q8CJ61 1-208)

- binding [3]: binds
Substance: ACT1 (endogenous, human HeLa cells) (from UniProt O43734 1-574)

- binding [4]: no binding
- binding [5]: binds
Substance: Myc-tagged CMTM4 in Drosophila S2 cells (from UniProt Q8CJ61 1-208)
